In patent publication US10787442B2, “Modulators of indoleamine 2,3-dioxygenase” (GLAXOSMITHKLINE INTELLECTUAL PROPERTY DEVELOPMENT LIMITED, priority 2016, dated 2020):

Biological target: indoleamine 2, 3-dioxygenase (IDO1) (Homo sapiens, UniProt P14902)
Experiment: IDO1 PBMC RapidFire MS Assay (kynurenine by mass spectrometry)
Type: cell-based
Settings: human PBMC stimulated with IFN-γ and LPS, 2 days; recorded as pIC50; read-out: IDO1 PBMC PXC50 (converted)
Protocol: IDO1 PBMC RapidFire MS Assay
Compounds of the present invention were tested via high-throughput cellular assays utilizing detection of kynurenine via mass spectrometry and cytotoxicity as end-points. […] Compounds with IDO1 inhibitory properties decreased the amount of kynurenine produced by the cells via the tryptophan catabolic pathway. Cellular toxicity due to the effect of compound treatment was measured using CellTiter-Glo® reagent (CTG) (Promega Corporation, Madison, Wis.), which is based on luminescent detection of ATP, an indicator of metabolically active cells.
In preparation for the assays, test compounds were serially diluted 3-fold in DMSO from a typical top concentration of 1 mM or 5 mM and plated at 0.5 μL in 384-well, polystyrene, clear bottom, tissue culture treated plates with lids (Greiner Bio-One, Kremsmünster, Austria) to generate 11-point dose response curves. Low control wells (0% kynurenine or 100% cytotoxicity) contained either 0.5 μL of DMSO in the presence of unstimulated (−IFN-γ/−LPS) PBMCs for the mass spectrometry assay or 0.5 μL of DMSO in the absence of cells for the cytotoxicity assay, and high control wells (100% kynurenine or 0% cytotoxicity) contained 0.5 μL of DMSO in the presence of stimulated (+IFN-γ/+LPS) PBMCs for both the mass spectrometry and cytotoxicity assays.
Frozen stocks of PBMCs were washed and recovered in RPMI 1640 medium (Thermo Fisher Scientific, Inc., Waltham, Mass.) supplemented with 10% v/v heat-inactivated fetal bovine serum (FBS) (Thermo Fisher Scientific, Inc., Waltham, Mass.), and 1× penicillin-streptomycin antibiotic solution (Thermo Fisher Scientific, Inc., Waltham, Mass.). The cells were diluted to 1,000,000 cells/mL in the supplemented RPMI 1640 medium. 50 μL of either the cell suspension, for the mass spectrometry assay, or medium alone, for the cytotoxicity assay, were added to the low control wells, on the previously prepared 384-well compound plates, resulting in 50,000 cells/well or 0 cells/well respectively. IFN-γ and LPS were added to the remaining cell suspension at final concentrations of 100 ng/ml and 50 ng/ml respectively, and 50 μL of the stimulated cells were added to all remaining wells on the 384-well compound plates. The plates, with lids, were then placed in a 37° C., 5% CO2 humidified incubator for 2 days.
Following incubation, the 384-well plates were removed from the incubator and allowed to equilibrate to room temperature for 30 minutes. For the cytotoxicity assay, CellTiter-Glo® was prepared according to the manufacturer's instructions, and 40 μL were added to each plate well. After a twenty minute incubation at room temperature, luminescence was read on an EnVision® Multilabel Reader (PerkinElmer Inc., Waltham, Mass.). For the mass spectrometry assay, 10 μL of supernatant from each well of the compound-treated plates were added to 40 μL of acetonitrile, containing 10 μM of an internal standard for normalization, in 384-well, polypropylene, V-bottom plates (Greiner Bio-One, Kremsmünster, Austria) to extract the organic analytes. Following centrifugation at 2000 rpm for 10 minutes, 10 μL from each well of the acetonitrile extraction plates were added to 90 μL of sterile, distilled H2O in 384-well, polypropylene, V-bottom plates for analysis of kynurenine and the internal standard on the RapidFire 300 (Agilent Technologies, Santa Clara, Calif.) and 4000 QTRAP MS (SCIEX, Framingham, Mass.). MS data were integrated using Agilent Technologies' RapidFire Integrator software, and data were normalized for analysis as a ratio of kynurenine to the internal standard.

UniProt P14902, sequence (P14902 whole entry): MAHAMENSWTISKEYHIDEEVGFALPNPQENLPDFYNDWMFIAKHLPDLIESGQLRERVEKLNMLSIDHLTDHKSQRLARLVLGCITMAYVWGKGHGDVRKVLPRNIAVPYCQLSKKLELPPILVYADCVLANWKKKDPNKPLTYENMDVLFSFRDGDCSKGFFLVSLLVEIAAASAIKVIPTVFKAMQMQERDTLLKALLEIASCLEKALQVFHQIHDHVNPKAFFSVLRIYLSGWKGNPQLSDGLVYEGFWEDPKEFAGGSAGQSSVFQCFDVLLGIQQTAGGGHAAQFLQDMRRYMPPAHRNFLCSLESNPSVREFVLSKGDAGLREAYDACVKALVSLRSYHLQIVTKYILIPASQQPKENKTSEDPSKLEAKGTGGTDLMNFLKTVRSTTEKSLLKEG

Work on CC(C)CN(CC(C)C)c1ncc(C(C)CC(=O)O)cc1Nc1nc(C(F)(F)F)ns1 (centres unmarked) [Example 1, 3-(6-(diisobutylamino)-5-((3-(trifluoromethyl)-1,2,4-thiadiazol-5-yl)amino)pyridin-3-yl)butanoic acid] yielded an IC50 of 3.98 nM.

CC(C)CN(c1ncc(C(C)CC(=O)O)cc1Nc1ccc(C(F)(F)F)cn1)C1CCOCC1 (centres unmarked) [Example 2, 3-(6-(isobutyl(tetrahydro-2H-pyran-4-yl)amino)-5-((5-(trifluoromethyl)pyridin-2-yl)amino)pyridin-3-yl)butanoic acid] was tested, and the IC50 was 3.98 nM.

Work on CC(C)CN(c1ncc([C@H](C)CC(=O)O)cc1Nc1nc(C(F)(F)F)ns1)C1CCOCC1 [Example 3, (R)-3-(6-(isobutyl(tetrahydro-2H-pyran-4-yl)amino)-5-((3-(trifluoromethyl)-1,2,4-thiadiazol-5-yl)amino)pyridin-3-yl)butanoic acid] yielded an IC50 of 1.26 nM.

CC(C)CN(c1ncc([C@H](C)CC(=O)O)cc1Nc1ccc(Cl)nc1)C1CCOCC1 [Example 4, (R)-3-(5-((6-chloropyridin-3-yl)amino)-6-(isobutyl(tetrahydro-2H-pyran-4-yl)amino)pyridin-3-yl)butanoic acid] showed an IC50 of 3.98 nM.

In the case of CC(C)CN(c1ncc([C@H](C)CC(=O)O)cc1Nc1cnc(Cl)nc1)C1CCOCC1 [Example 5, (R)-3-(5-((2-chloropyrimidin-5-yl)amino)-6-(isobutyl(tetrahydro-2H-pyran-4-yl)amino)pyridin-3-yl)butanoic acid], the IC50 is reported as 7.94 nM.

CC(C)CN(c1ncc([C@H](C)CC(=O)O)cc1Nc1ccc(Cl)cn1)C1CCOCC1 [Example 6, (R)-3-(5-((5-chloropyridin-2-yl)amino)-6-(isobutyl(tetrahydro-2H-pyran-4-yl)amino)pyridin-3-yl)butanoic acid] was tested, and the IC50 was 5.01 nM.

With CC(C)CN(c1ncc([C@H](C)CC(=O)O)cc1Nc1ccc(Cl)c(F)n1)C1CCOCC1 [Example 7, (R)-3-(5-((5-chloro-6-fluoropyridin-2-yl)amino)-6-(isobutyl(tetrahydro-2H-pyran-4-yl)amino)pyridin-3-yl)butanoic acid] the IC50 was 6.31 nM.

In the case of CC(C)CN(c1ncc([C@H](C)CC(=O)O)cc1Nc1nc(C(C)C)ns1)C1CCOCC1 [Example 8], the IC50 is reported as 10 nM.

Work on C[C@H](CC(=O)O)c1cnc(N(CC2CC2)C2CCOCC2)c(Nc2ccc(Cl)cn2)c1 [Example 9, (R)-3-(5-((5-chloropyridin-2-yl)amino)-6-((cyclopropylmethyl)(tetrahydro-2H-pyran-4-yl)amino)pyridin-3-yl)butanoic acid] yielded an IC50 of 20 nM.

CC(C)CN(c1ncc([C@H](C)CC(=O)O)cc1Nc1n[nH]c(C(F)(F)F)n1)C1CCCCC1 [Example 10, (R)-3-(6-(cyclohexyl(isobutyl)amino)-5-((5-(trifluoromethyl)-1H-1,2,4-triazol-3-yl)amino)pyridin-3-yl)butanoic acid] showed an IC50 of 10 nM.

CC(C)CN(c1ncc([C@H](C)CC(=O)O)cc1Nc1nc(C(F)(F)F)ns1)C1CCCCC1 [Example 11, (R)-3-(6-(cyclohexyl(isobutyl)amino)-5-((3-(trifluoromethyl)-1,2,4-thiadiazol-5-yl)amino)pyridin-3-yl)butanoic acid] gave an IC50 of 1 nM.

Compound CC(C)CN(c1ncc([C@H](C)CC(=O)O)cc1Nc1nc(Cl)ns1)C1CCCCC1 [Example 12, (R)-3-(5-((3-chloro-1,2,4-thiadiazol-5-yl)amino)-6-(cyclohexyl(isobutyl)amino)pyridin-3-yl)butanoic acid] has an IC50 of 2.51 nM.

With CC(C)CN(c1ncc([C@H](C)CC(=O)O)cc1Nc1ccc(Cl)cn1)C1CCCCC1 [Example 13, (R)-3-(5-((5-chloropyridin-2-yl)amino)-6-(cyclohexyl(isobutyl)amino)pyridin-3-yl)butanoic acid] the IC50 was 1.58 nM.

CC(C)CN(c1ncc([C@H](C)CC(=O)O)cc1Nc1nc(C(C)C)ns1)C1CCCCC1 [Example 14, (R)-3-(6-(cyclohexyl(isobutyl)amino)-5-((3-isopropyl-1,2,4-thiadiazol-5-yl)amino)pyridin-3-yl)butanoic acid] was tested, and the IC50 was 3.16 nM.

Compound COCc1nsc(Nc2cc([C@H](C)CC(=O)O)cnc2N(CC(C)C)C2CCCCC2)n1 [Example 15, (R)-3-(6-(cyclohexyl(isobutyl)amino)-5-((3-(methoxymethyl)-1,2,4-thiadiazol-5-yl)amino)pyridin-3-yl)butanoic acid] has an IC50 of 5.01 nM.

For Cc1nsc(Nc2cc([C@H](C)CC(=O)O)cnc2N(CC(C)C)C2CCCCC2)n1 [Example 16, (R)-3-(6-(cyclohexyl(isobutyl)amino)-5-((3-methyl-1,2,4-thiadiazol-5-yl)amino)pyridin-3-yl)butanoic acid], the IC50 was 7.94 nM.

CC(C)CN(c1ncc([C@H](C)CC(=O)O)cc1Nc1ccc(Cl)nc1)C1CCC(F)(F)CC1 [Example 17, (R)-3-(5-((6-chloropyridin-3-yl)amino)-6-((4,4-difluorocyclohexyl)(isobutyl)amino)pyridin-3-yl)butanoic acid] gave an IC50 of 1.58 nM.

CC(C)CN(c1ncc([C@H](C)CC(=O)O)cc1Nc1ccc(Cl)cn1)C1CCC(F)(F)CC1 [Example 18, (R)-3-(5-((5-chloropyridin-2-yl)amino)-6-((4,4-difluorocyclohexyl) (isobutyl)amino)pyridin-3-yl)butanoic acid] gave an IC50 of 3.98 nM.

CC(C)CN(c1ncc([C@H](C)CC(=O)O)cc1Nc1ccc(Cl)nc1)C1CC(F)(F)C1 [Example 19, (R)-3-(5-((6-chloropyridin-3-yl)amino)-6-((3,3-difluorocyclobutyl)(isobutyl)amino)pyridin-3-yl) butanoic acid] was tested, and the IC50 was 6.31 nM.

Compound CC(C)CN(c1ncc([C@H](C)CC(=O)O)cc1Nc1nc(C(F)(F)F)ns1)C1CC(F)(F)C1 [Example 20, (R)-3-(6-((3,3-difluorocyclobutyl)(isobutyl)amino)-5-((3-(trifluoromethyl)-1,2,4-thiadiazol-5-yl)amino)pyridin-3-yl)butanoic acid] has an IC50 of 7.94 nM.

Compound CO[C@H]1CC[C@@H](N(CC(C)C)c2ncc([C@H](C)CC(=O)O)cc2Nc2nc(Cl)ns2)CC1 [Example 21, (R)-3-(5-((3-chloro-1,2,4-thiadiazol-5-yl)amino)-6-(isobutyl((1s,4S)-4-methoxycyclohexyl)amino)pyridin-3-yl)butanoic acid] has an IC50 of 5.01 nM.

Work on CO[C@H]1CC[C@@H](N(CC(C)C)c2ncc([C@H](C)CC(=O)O)cc2Nc2nc(C(F)(F)F)ns2)CC1 [Example 22, (R)-3-(6-(isobutyl((1s,4S)-4-methoxycyclohexyl)amino)-5-((3-(trifluoromethyl)-1,2,4-thiadiazol-5-yl)amino)pyridin-3-yl) butanoic acid] yielded an IC50 of 1.26 nM.

Work on CO[C@H]1CC[C@@H](N(CC(C)C)c2ncc([C@H](C)CC(=O)O)cc2Nc2ccc(C#N)nc2)CC1 [Example 23, (R)-3-(5-((6-cyanopyridin-3-yl)amino)-6-(isobutyl((1s,4S)-4-methoxycyclohexyl)amino)pyridin-3-yl)butanoic acid] yielded an IC50 of 3.98 nM.

Compound CO[C@H]1CC[C@@H](N(CC(C)C)c2ncc([C@H](C)CC(=O)O)cc2Nc2ccc(Cl)cn2)CC1 [Example 24, (R)-3-(5-((5-chloropyridin-2-yl)amino)-6-(isobutyl((1s,4S)-4-methoxycyclohexyl)amino)pyridin-3-yl)butanoic acid] has an IC50 of 5.01 nM.

CO[C@H]1CC[C@@H](N(CC(C)C)c2ncc([C@H](C)CC(=O)O)cc2Nc2ccc(C#N)cn2)CC1 [Example 25, (R)-3-(5-((5-cyanopyridin-2-yl)amino)-6-(isobutyl((1s,4S)-4-methoxycyclohexyl)amino)pyridin-3-yl)butanoic acid] showed an IC50 of 7.94 nM.

For CO[C@H]1CC[C@H](N(CC(C)C)c2ncc([C@H](C)CC(=O)O)cc2Nc2nc(C(F)(F)F)ns2)CC1 [Example 26, (R)-3-(6-(isobutyl((1r,4R)-4-methoxycyclohexyl)amino)-5-((3-(trifluoromethyl)-1,2,4-thiadiazol-5-yl)amino)pyridin-3-yl)butanoic acid], the IC50 was 3.16 nM.
